Test results from publication PMC4336329 (PLoS ONE, 2015).
The whole screen tested about 310,000 compounds, of which about 14,000 (4.5%) showed an effect of 50% or more. The effect is printed as a negative number. The list shows a part of the results.

molecular target: human ether-à-go-go-related gene (hERG) potassium channel (human, UniProt Q12809); experiment: primary screen, population patch clamp on CHO cells stably expressing hERG
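Further: peak tail current of the secondary pulse compared with the same well before compound.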

human ether-à-go-go-related gene (hERG) potassium channel, sequence (Q12809 whole entry, looked up): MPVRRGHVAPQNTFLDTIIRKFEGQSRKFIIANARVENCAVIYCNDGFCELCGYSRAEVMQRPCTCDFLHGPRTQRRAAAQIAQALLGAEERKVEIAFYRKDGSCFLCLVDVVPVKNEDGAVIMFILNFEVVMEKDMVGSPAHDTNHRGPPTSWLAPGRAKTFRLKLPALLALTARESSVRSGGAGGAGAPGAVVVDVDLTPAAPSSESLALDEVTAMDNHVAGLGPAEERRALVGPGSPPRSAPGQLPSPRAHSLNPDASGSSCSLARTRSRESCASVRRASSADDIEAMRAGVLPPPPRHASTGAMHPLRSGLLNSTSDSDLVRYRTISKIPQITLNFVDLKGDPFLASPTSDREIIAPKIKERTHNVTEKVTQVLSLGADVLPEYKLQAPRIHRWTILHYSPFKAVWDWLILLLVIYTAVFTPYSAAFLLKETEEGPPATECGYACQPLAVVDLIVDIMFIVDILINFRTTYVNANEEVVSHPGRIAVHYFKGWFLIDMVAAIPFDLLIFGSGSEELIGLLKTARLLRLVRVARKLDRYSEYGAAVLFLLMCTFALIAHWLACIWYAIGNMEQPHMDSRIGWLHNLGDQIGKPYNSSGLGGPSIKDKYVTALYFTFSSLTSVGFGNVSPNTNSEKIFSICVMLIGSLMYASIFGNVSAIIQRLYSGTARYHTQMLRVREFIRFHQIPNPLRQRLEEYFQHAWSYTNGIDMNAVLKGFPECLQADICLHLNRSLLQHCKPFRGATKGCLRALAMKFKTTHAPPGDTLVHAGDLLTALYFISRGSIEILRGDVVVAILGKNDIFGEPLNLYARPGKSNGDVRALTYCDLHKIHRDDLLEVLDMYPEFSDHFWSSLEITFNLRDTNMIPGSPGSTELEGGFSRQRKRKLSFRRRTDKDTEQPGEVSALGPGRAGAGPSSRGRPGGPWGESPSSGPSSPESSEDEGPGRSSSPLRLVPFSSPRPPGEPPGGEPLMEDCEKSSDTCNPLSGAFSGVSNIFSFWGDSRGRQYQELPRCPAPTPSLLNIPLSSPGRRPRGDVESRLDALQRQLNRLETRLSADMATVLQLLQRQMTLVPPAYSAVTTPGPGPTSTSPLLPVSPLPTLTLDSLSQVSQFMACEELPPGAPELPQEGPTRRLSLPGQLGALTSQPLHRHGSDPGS

Which “hERG current change (%, negative = inhibition) at 10uM” value does the source give for CC(=O)NCC(=O)OCc1ccc([N+](=O)[O-])cc1 here?
Its value is 3.26%.

COc1ccc(Cn2cc(F)c(=O)n(CCC(C)C)c2=O)cc1[N+](=O)[O-] was tested. Which “hERG current change (%, negative = inhibition) at 10uM” value did it give?
Its value is -40%.

Which “hERG current change (%, negative = inhibition) at 10uM” value does the source give for COc1ccc(OCc2cc(C(=O)NCC3CCCCO3)no2)c(Cl)c1 (stereo not shown) here?
Its value is -18.6%.

Which “hERG current change (%, negative = inhibition) at 10uM” value does the source give for Cn1c(SCC(=O)NNC(=O)c2ccccc2O)nnc1-c1ccccc1 here?
The value was 18%.

With O=C(Nc1cccc(OC(=O)N2CCCCC2)c1)N1CCCCC1 as the compound, how does the “hERG current change (%, negative = inhibition) at 10uM” value read?
Its value is -1.5%.

With CCC(C)(c1nnnn1-c1c(C)cccc1C)N(N=O)c1cccc(C(F)(F)F)c1 (stereo not shown) as the compound, how does the “hERG current change (%, negative = inhibition) at 10uM” value read?
The value was -5.59%.

CC1(c2ccc(OC(F)F)cc2)NC(=O)N(CC(=O)N2c3ccccc3NC(=O)C2(C)C)C1=O (stereo not shown) was tested. Which “hERG current change (%, negative = inhibition) at 10uM” value did it give?
Its value is -6.78%.

Which “hERG current change (%, negative = inhibition) at 10uM” value does the source give for COC(=O)c1cc(-c2ccc(Cl)cc2Cl)n[nH]1 here?
The value was 14.1%.

For CCC(CC)=C(C#N)C(=O)NC1CCCCC1, which “hERG current change (%, negative = inhibition) at 10uM” value is on record?
Its value is 15.5%.

Which “hERG current change (%, negative = inhibition) at 10uM” value does the source give for CCOc1ccc(S(=O)(=O)Nc2c(C)n(C)n(-c3ccccc3)c2=O)cc1 here?
Its value is 7.86%.

For CN(C)S(=O)(=O)c1cccc(NC(=S)N/N=C/c2ccco2)c1, which “hERG current change (%, negative = inhibition) at 10uM” value is on record?
Its value is -32.1%.

For O=C(Nc1ccccc1)Nc1ccc(-n2ccc(C(F)(F)F)n2)cc1, which “hERG current change (%, negative = inhibition) at 10uM” value is on record?
Its value is 3.19%.

Cc1ccc(OCCn2cnc3ccccc3c2=O)c([N+](=O)[O-])c1.O=C(O)C(=O)O was tested. Which “hERG current change (%, negative = inhibition) at 10uM” value did it give?
Its value is 7.63%.

Which “hERG current change (%, negative = inhibition) at 10uM” value does the source give for COc1ccc(C(=O)CSc2nnc(COc3ccc(C#N)cc3)n2-c2ccccc2)cc1 here?
Its value is -6.34%.

Which “hERG current change (%, negative = inhibition) at 10uM” value does the source give for C=CCNC(=O)CSCc1ccc(Br)cc1 here?
Its value is 6.17%.

With CCS(=O)(=O)Nc1ccc(NC(C)=O)cc1 as the compound, how does the “hERG current change (%, negative = inhibition) at 10uM” value read?
Its value is -34%.

For COc1ccc(/C=N/NC(=O)CCC(=O)Nc2ccc(Br)cc2)c(OC)c1, which “hERG current change (%, negative = inhibition) at 10uM” value is on record?
Its value is 5.6%.

How did the “hERG current change (%, negative = inhibition) at 10uM” value turn out when NC(=O)c1cnn2c(-c3ccc(Cl)cc3Cl)ccnc12 was run?
Its value is 13.3%.

With C#CCn1c(-c2ccccc2)ccc(C#N)c1=O as the compound, how does the “hERG current change (%, negative = inhibition) at 10uM” value read?
Its value is 15.9%.

With CCc1nnc(NC(=O)Nc2ccccc2OC)s1 as the compound, how does the “hERG current change (%, negative = inhibition) at 10uM” value read?
The value was 8.57%.

How did the “hERG current change (%, negative = inhibition) at 10uM” value turn out when CCCC(=O)N1CCCC(c2nc(-c3cccc(OC)c3)no2)C1 (stereo not shown) was run?
Its value is 22.9%.

Which “hERG current change (%, negative = inhibition) at 10uM” value does the source give for Cc1ccc(C)c(-n2c(C)cc(/C=N/NC(=O)c3c(C)nc4cc(C)ccn34)c2C)c1 here?
The value was -0.122%.

With COc1cccc(OC)c1C(=O)OCC(=O)NC(=O)NCc1ccccc1 as the compound, how does the “hERG current change (%, negative = inhibition) at 10uM” value read?
Its value is -18.5%.

How did the “hERG current change (%, negative = inhibition) at 10uM” value turn out when CN1CCN(S(=O)(=O)c2ccc(N)cc2)CC1 was run?
Its value is -4.87%.

CC1CCCCN1C(=O)CSc1nc(C2CC2)nc2ccccc12 (stereo not shown) was tested. Which “hERG current change (%, negative = inhibition) at 10uM” value did it give?
Its value is -27.3%.

For O=P(O)(O)/C=C(\Cl)c1ccccc1, which “hERG current change (%, negative = inhibition) at 10uM” value is on record?
The value was -3.41%.

Which “hERG current change (%, negative = inhibition) at 10uM” value does the source give for O=C(O)CN(CCc1ccccc1)S(=O)(=O)c1ccccc1 here?
Its value is 27.6%.

CN(CCOC(=O)/C=C/c1ccccc1)C(C)(C)C.Cl was tested. Which “hERG current change (%, negative = inhibition) at 10uM” value did it give?
Its value is -22%.

Which “hERG current change (%, negative = inhibition) at 10uM” value does the source give for CCOC(=O)c1c(N)sc2c(O)c(Br)ccc12 here?
The value was -12.8%.

Nc1c([N+](=O)[O-])c(=O)sc2ccccc12 was tested. Which “hERG current change (%, negative = inhibition) at 10uM” value did it give?
Its value is 10.2%.

With N#CCCn1c(SCC(=O)NCC2CCCO2)nc2ccccc21 (stereo not shown) as the compound, how does the “hERG current change (%, negative = inhibition) at 10uM” value read?
The value was 1.96%.

For C/C(=N/NC(=O)c1ccco1)c1ccc(NC(=O)c2ccc(Br)o2)cc1, which “hERG current change (%, negative = inhibition) at 10uM” value is on record?
Its value is 11.4%.

For COc1ccccc1NC(=O)[C@H](COCc1ccccc1)NC(=O)OC(C)(C)C, which “hERG current change (%, negative = inhibition) at 10uM” value is on record?
Its value is -5.47%.

Which “hERG current change (%, negative = inhibition) at 10uM” value does the source give for COc1ccccc1NC(=O)c1ccc2nsnc2c1 here?
Its value is 8.53%.

CC(C)Oc1ccc(Cc2c(O)[nH]c(=O)[nH]c2=O)cc1 was tested. Which “hERG current change (%, negative = inhibition) at 10uM” value did it give?
The value was -1.23%.

For CCOC(=O)c1c(C)oc2c(F)c(F)c(F)c(F)c2c1=O, which “hERG current change (%, negative = inhibition) at 10uM” value is on record?
Its value is -0.91%.

With CCNC(=O)COC(=O)C1C(C(=O)OCC)=C(C)NC(C)=C1C(=O)OCC as the compound, how does the “hERG current change (%, negative = inhibition) at 10uM” value read?
The value was 3.38%.

For CC(=O)Oc1ccc2ccccc2c1C(NC(=O)Cc1ccccc1)c1ccc(Cl)cc1 (stereo not shown), which “hERG current change (%, negative = inhibition) at 10uM” value is on record?
Its value is -9.07%.

Cc1ccc(CN(Cc2ccccn2)C(=O)Nc2c(F)cccc2F)cc1 was tested. Which “hERG current change (%, negative = inhibition) at 10uM” value did it give?
The value was -0.968%.

With COc1ccc2[nH]c(=O)c(CN(CCO)C(=O)c3ccccc3F)cc2c1 as the compound, how does the “hERG current change (%, negative = inhibition) at 10uM” value read?
The value was 13.3%.

With CC(C)(C)c1ccc(O)c(N=Cc2cc(Br)ccc2O)c1 as the compound, how does the “hERG current change (%, negative = inhibition) at 10uM” value read?
The value was 13.3%.

How did the “hERG current change (%, negative = inhibition) at 10uM” value turn out when CCOc1ccc(-n2c(SCc3ccc(C(=O)OC)o3)nc3c(c2=O)SCC3)cc1 was run?
The value was -6.51%.

Which “hERG current change (%, negative = inhibition) at 10uM” value does the source give for COc1cc(C)c(C(=O)Oc2cc(C)c(C(=O)O)c(O)c2C)c(OC)c1C here?
Its value is 5.49%.

How did the “hERG current change (%, negative = inhibition) at 10uM” value turn out when CCNc1ccc(C(=O)OCC(=O)Nc2cc(C)on2)cc1[N+](=O)[O-] was run?
Its value is 3.63%.

With CC(C)CNC(=O)COC(=O)/C=C/c1ccccc1[N+](=O)[O-] as the compound, how does the “hERG current change (%, negative = inhibition) at 10uM” value read?
The value was 5.61%.

For CC1=NC(C(F)(F)F)(C(F)(F)F)C2=C(CC(C)(C)CC2=O)N1Cc1ccco1, which “hERG current change (%, negative = inhibition) at 10uM” value is on record?
Its value is -4.65%.
